Laboratory results from PubChem BioAssay AID651820 (National Center for Advancing Translational Sciences (NCATS), 2012).
About 12,000 (3.5%) of roughly 340,000 compounds were called active. The shares of active, inactive and inconclusive entries below differ from those in the screen. Calls come from the whole dose curve; as a rule, active = well fitted inhibition curve with a large enough effect; inconclusive = small, poorly fitted or top-dose-only effect, or another doubt; inactive = no such curve, though single readings can be large or run the other way. Potencies of inconclusive entries are left out as doubtful fits.

assay: qHTS Assay for Inhibitors of Hepatitis C Virus (HCV); conditions: Huh7.5.1 HCVcc-Cre (HCVcc is cell-culture hepatitis C virus) infection, luciferase reporter, 44 h; activity change, negative = inhibition: at 41.8 µM (top of the series) unless noted
Text: Hepatitis C virus (HCV) infects about 200 million people in the world. Many infected people progress to chronic liver disease including cirrhosis with a risk of developing liver cancer. To date, there is no effective vaccine for hepatitis C. Current therapy based on interferon is only effective in about half of the patients and is associated with significant adverse effects. The fraction of people with HCV who can complete a successful treatment is estimated to be no more than 10 percent. Recent development of direct-acting antivirals against HCV, such as protease and polymerase inhibitors, is promising but still requires combination with peginterferon and ribavirin for maximal efficacy. In addition, these agents are associated with high rate of resistance and many have significant side effects. Due to the lack of a culture system for infectious HCV, the search for new HCV drugs has been greatly hampered. […] High-throughput screening (HTS) with an infectious HCV system would cover the complete spectrum of potentially druggable targets in all stages of HCV lifecycle, and would have more biological relevance than other cell-based assays. Moreover, targeting several key processes in the viral life cycle may not only increase antiviral efficacy; more importantly, it may also reduce the capacity of the virus to develop resistance to the compound. The goal of this project is to identify novel HCV inhibitors as new therapies for hepatitis C, using a highly sensitive and specific assay platform which is based on a HCV infectious cell culture system established in the laboratory and adapted for high-throughput HCV drug screen. NIH Chemical Genomics Center [NCGC] NIH Molecular Libraries Probe Centers Network [MLPCN] MLPCN Grant: MH095511 Assay Submitter (PI): Jake Liang, NIDDK
The assay will start with plating 1,000 cells/well in 3 µL volume and culture for 4 h. Then 23 nL of compounds from the library collection will be added to each well, followed by adding 2.5 µL of HCVcc-Cre virus (~ 0.5 moi) and further cultured for 44 h before the luciferase assay. A volume of 4.5 µL luciferase substrates will be added to each well and the plates will be incubated at room temperature for 15 min. and then read for 15 sec. for the luciferase activity
% is set by controls: 0 for no effect and ±100 for the full control effect; tags give direction and shape of the fitted curve.

| SMILES | Potency | activity change, negative = inhibition |
| --- | --- | --- |
| C=C(C)C(O)Cc1c(OC)ccc(C(=O)/C=C/c2ccc(O)cc2)c1O (configuration not stated) | inconclusive [inhibitor, partial curve] | – |
| Cn1c(=O)c2c(nc(NCCc3ccccc3)n2Cc2ccccc2)n(C)c1=O | inconclusive [inhibitor, partial curve] | – |
| CC1CCN(C(=O)C2CCCN(c3ncnc4c3nc3n4CCCCC3)C2)CC1 (configuration not stated) | inconclusive [inhibitor, single point] | – |
| COc1ccc(OC)c(/C=C/C(=O)Nc2ccc3c(c2)CCC3)c1 | inconclusive [inhibitor, full curve] | – |
| CC1(C)CC(N2CCCC2)=CC(=[N+]2CCCCCC2)C1 | inconclusive [inhibitor, full curve] | – |
| COc1cc2c(OC)cccc2cc1C(=O)O | – | inactive: 22.7% |
| C=CCn1c(SCc2c(C)noc2C)nc2sc3c(c2c1=O)CCCC3 | inconclusive [inhibitor, single point] | – |
| O=C(NCCCN1CCOCC1)c1ccc([N+](=O)[O-])cc1[N+](=O)[O-] | inconclusive [inhibitor, partial curve] | – |
| CN(CCC1CCOCC1)C(=O)CC1C(=O)NCCN1Cc1ccccc1F (configuration not stated) | – | inactive: 15.1% |
| Nc1nc2ccccc2n1/N=C/c1ccc(Br)cc1 | inconclusive [inhibitor, single point] | – |
| CCn1c(C)nc2cc(S(=O)(=O)C(F)(F)F)ccc21 | inconclusive [inhibitor, partial curve] | – |
| Cc1cc(C)nc(Sc2nc(Nc3ccccc3)nc(Sc3nc(C)cc(C)n3)n2)n1 | inconclusive [inhibitor, partial curve] | – |
| Cc1cccc(NCc2ccccc2O)c1C | – | inactive: -14.5% |
| Cc1cc(/C=N/NC(=O)c2ccc(O)cc2)c(C)n1CC(C)C | – | inactive: -10.2% |
| CCOc1ccc(NC(=O)NCCCCc2ccccc2)cc1 | – | inactive: -12% |
| CC(C)CCNC(=O)c1c(CSc2ccccc2)noc1C(=O)NCc1ccccc1 | – | inactive: 13.8% |
| COc1ccc(-c2cc(C(F)(F)F)n3nc(C(=O)N4CCN(C(=O)c5ccco5)CC4)cc3n2)cc1 | inconclusive [inhibitor, partial curve] | – |
| CCCCN=C[C@]12CCC(O)CC1(O)CCC1[C@@H]2CC[C@]2(C)[C@H](C3C=CC(=O)O3)CCC12O (some centres not stated) | active: 4.47 µM | – |
| O=C(NNC1=Nc2ccccc2SC1)c1ccc(F)cc1 | inconclusive [inhibitor, partial curve, poor fit] | – |
| CCOc1ccccc1N1CCN(C(=O)CSc2ccc3c(c2)OCCO3)CC1 | inconclusive [inhibitor, single point] | – |
| CCCCNc1nc(-c2ccccc2)nc(-n2ccnc2)n1 | active: 3.55 µM | – |
| CCN1C(=O)[C@@H]2[C@@H](c3ccc(-c4ccc(OC)cc4)c(OC)c3)N3CCC[C@@]3(C(=O)OC)[C@@H]2C1=O | – | inactive: -15.4% |
| O=C(CN(C(=O)Cn1nnc(-c2ccc(F)cc2)n1)c1ccc(F)cc1)NC1CCCC1 | inconclusive [inhibitor, full curve, poor fit] | – |
| O=C(N/N=C/c1ccc[nH]1)c1ccc(Cl)cc1 | active: 5.01 µM | – |

| SMILES | Potency | activity change, negative = inhibition |
| --- | --- | --- |
| COC(=O)c1ccc(NC(=O)C(=O)c2cn(CC(=O)N3CCOCC3)c3ccccc23)cc1 | – | inactive: 0.276% |
| COc1cc(/C=C2\C(=O)ON=C2c2ccccc2)cc(Cl)c1O | – | inactive: 10.7% |
| CCN(CC)C(=O)c1nn(Cc2ccccc2)c(=O)c2ccccc12 | – | inactive: 4.47% |
| Cc1c(Cl)cnn1CC(=O)NC1C(=O)N2C(C(=O)O)=C(CSc3nnnn3C)CSC12 (configuration not stated) | – | inactive: 14.2% |
| O=[N+]([O-])c1ccc(S(=O)(=O)CC(CN2CCCCC2)N2CCCCC2)cc1 (configuration not stated) | active: 4.47 µM | – |
| O=C(NCCCn1ccnc1)c1cc(-c2ccc(Br)cc2)on1 | inconclusive [inhibitor, single point] | – |
| COc1ccc2[nH]c(C)c(CCNC(=S)Nc3ccc(C)cc3)c2c1 | inconclusive [inhibitor, single point] | – |
| CC[N+](CC)(CC)CCCCOc1ccc2c(c1)C(=O)c1cc(OCCCC[N+](CC)(CC)CC)ccc1-2 | inconclusive [inhibitor, partial curve] | – |
| CC1=NN(Cc2ccccc2)C(=O)/C1=C\c1ccc(N(C)C)cc1 | – | inactive: 17.4% |
| CCC(C)[C@H](NC(=O)[C@@H]1CSC2c3ccccc3C(=O)N21)C(=O)N1CCCCC1 (some centres not stated) | – | inactive: -2.79% |
| CCn1c(C)nc2cc(C(=O)NNC(=O)Nc3cccc(Cl)c3)ccc21 | – | inactive: -8.13% |
| CCc1ccc2nc(NC(=O)Cn3cnc4ccccc4c3=O)sc2c1 | – | inactive: 11.9% |
| COc1ccccc1NC(=O)c1ccc2c(O)c(S(=O)(=O)c3ccccc3)c(=O)[nH]c2c1 | – | inactive: 2.98% |
| COc1ccc(Br)cc1C(=O)NCc1cccnc1 | inconclusive [inhibitor, single point] | – |
| COc1cccc(C(NC(C)=O)c2ccc3cccnc3c2O)c1 (configuration not stated) | active: 4.47 µM | – |
| Nc1ccc(-c2ccccc2)cc1 | – | inactive: 27.4% |
| CCOc1cc2nc(-c3ccc(OC)c(OC)c3)nc(N3CCOCC3)c2cc1OC | inconclusive [inhibitor, full curve] | – |
| CCC(=O)N1CCc2cc(OC)c(OC)cc2C1COc1ccc(OC)cc1 (configuration not stated) | – | inactive: 0.744% |
| Cc1ccc(NC(=O)c2cccc(S(=O)(=O)N(C)c3ccccc3)c2)cc1S(=O)(=O)N1CCOCC1 | active: 3.98 µM | – |
| COc1nnc(-c2ccc(C)c(S(N)(=O)=O)c2)c2ccccc12 | inconclusive [inhibitor, single point] | – |
| Cc1cc(Br)ccc1NC(=O)CN(C)C(=O)C1CCN(C(=O)c2ccc(F)cc2)CC1 | inconclusive [inhibitor, full curve] | – |
| COc1ccc(CCNC(=S)Nc2ccccc2)cc1 | inconclusive [inhibitor, single point] | – |
| C=CCN1C=CC(=C/C=C(/C#N)C(=O)OCC)C=C1 | inconclusive [inhibitor, partial curve] | – |
| Cc1ccc(S(=O)(=O)N(C)C)cc1NC(=O)c1ccc(-n2cncn2)c([N+](=O)[O-])c1 | inconclusive [inhibitor, single point] | – |

| SMILES | Potency | activity change, negative = inhibition |
| --- | --- | --- |
| CC(=O)Nc1sc2c(c1C(c1ccccc1Cl)N1CCN(CCO)CC1)CCCC2 (configuration not stated) | active: 11.2 µM | – |
| COc1ccc(CC(=O)Nc2cc(C)ccn2)cc1OC | – | inactive: 3.51% |
| COc1cc(C(=O)Nc2ccc3c(c2)CCCN3C(=O)c2ccco2)c([N+](=O)[O-])cc1OC | inconclusive [inhibitor, partial curve] | – |
| Cc1ccc(C(=O)NCCN2C3=NC[C@H](Cc4ccc(O)cc4)N3C[C@H]2Cc2ccc(O)cc2)cc1Br | – | inactive: -6.63% [at 8.37 µM] |
| CCCc1cc(=O)oc2cc(C)cc(O)c12 | inconclusive [inhibitor, full curve] | – |
| CC1CCCCC1NC(=O)c1cccc(NC2=NC3CS(=O)(=O)CC3S2)c1 (configuration not stated) | – | inactive: 4.63% |
| COc1cc2c(cc1NC(=O)COC(=O)Cn1cnc3ccccc31)oc1ccccc12 | active: 2.24 µM | – |
| Cc1cc(O)c2c(c1)C(=O)C13C(=C2O)C(=O)[C@H]2[C@@H](O)[C@@H]1[C@H]1[C@H](O)[C@@H]3C(=O)C3=C(O)c4c(O)cc(C)cc4C(=O)C312 (some centres not stated) | active: 10 µM | – |
| COc1ccc(C)cc1NC(=O)CSCc1cc(=O)n2c(C)csc2n1 | – | inactive: -9.34% |
| O=C(Nc1ccc2nn(-c3ccc(F)cc3)nc2c1)c1cccnc1 | inconclusive [inhibitor, partial curve, poor fit] | – |
| Cc1cc(NC(=O)Nc2cc(Cl)ccc2C)no1 | inconclusive [inhibitor, single point] | – |
| CCOc1ccc(OCc2ccc(C(=O)NCc3cccnc3)o2)cc1 | inconclusive [inhibitor, single point] | – |
| COc1cccc(C2NC(=S)NC3=C2CCc2ccccc23)c1 (configuration not stated) | inconclusive [inhibitor, single point] | – |
| COc1cc(OC)cc(C(=O)N[C@H](C(=O)Nc2cc(C)cc(C)c2)C(C)C)c1 | inconclusive [inhibitor, partial curve] | – |
| COc1cc(/C=C/C(=O)c2ccc3c(c2)OCCO3)cc(OC)c1OC | inconclusive [inhibitor, partial curve, poor fit] | – |
| Cc1cc(/C=C2/C(=O)NN(c3ccccc3)C2=O)c(C)n1-c1cccc(O)c1 | inconclusive [inhibitor, partial curve, poor fit] | – |
| CN(C)CCOc1nc(-c2ccccc2)nc2c1oc1ccccc12 | inconclusive [inhibitor, single point] | – |
| CCOc1ccccc1NC(=S)NCCc1ccc(F)cc1 | inconclusive [inhibitor, single point] | – |
| S=C(NCc1ccco1)N/N=C/c1ccncc1 | – | inactive: -7.73% |
| CCC(C)N1C(=O)/C(=C\c2ccc(N3CCCCCC3)cc2)C(=O)NC1=S (configuration not stated) | – | inactive: 0.718% |
| CCOC(=O)c1ccc(NC(=O)c2ccc(NC(=O)c3ccccc3)cc2)cc1 | – | inactive: 0.779% |
| Cc1ccc(S(=O)(=O)N2CCC(C(=O)Nc3ccccc3N3CCCCC3)CC2)cc1 | inconclusive [inhibitor, single point] | – |
| CCN1CC2([N+](=O)[O-])C=CC(=O)C([N+](=O)[O-])(C1)C2CC(=O)c1ccccc1 (configuration not stated) | inconclusive [inhibitor, partial curve] | – |
| CCc1c(C)sc(NC(=O)c2cccs2)c1C(=O)OC(C)C | inconclusive [inhibitor, partial curve] | – |
